Laboratory results reported in the supplement of paper PMC12217912.
The list shows a part of the results. The full chains were built here from the parent and the listed change. Inactive controls read about 0.05.

B1: TEV protease; numbered along this chain (parent)
chain: MGESLFKGPRDYNPISSSICHLTNESDGHTTSLYGIGFGPFIITNKHLFRRNNGTLVVQSLHGVFKVKDTTTLQQHLVDGRDMIIIRMPKDFPPFPQKLKFREPQREERICLVTTNFQTKSMSSMVSDTSCTFPSGDGIFWKHWIQTKDGQCGSPLVSTRDGFIVGIHSASNFTNTNNYFTSVPKNFMELLTNQEAQQWVSGWRLNADSVLWGGHKVFMVKPEEPFQPVKEATQL

Variants of: B1
Experiment: raw area under fraction-flipped curve 0-4 h after induction (AUC4h, not background-subtracted), DNA-recorder readout of cleavage of the substrate (dimensionless); higher = more cleavage of the substrate by the protease variant
Conditions: temperature: 34 °C; time window: 0-4 h after rhamnose induction
Procedure: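 In vivo DNA recorder in E. coli TOP10(DE3) ΔrhaA at 34 °C. Each TEVp single-site mutant (parent TEVp 0) is paired with a single-site variant of the 7-mer TEVs (canonical ENLYFQ|S). The substrate sits between flexible linkers in a Bxb1-sfGFP-TEVs-SsrA fusion, so cleavage stabilises Bxb1 and speeds flipping of a recombination array, read by NGS. The value is the raw area under the fraction-flipped curve over 0-4 h after rhamnose induction (AUC4h), with ≥20 reads per time point. It is not background-subtracted; inactive controls average about 0.047.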
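Note: Bxb1 expression induced with 0.2% (w/v) L-rhamnose at OD600 near 0.5, cultures sampled hourly, flipped fraction per protease–substrate barcode pair counted by paired-end Illumina sequencing.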

Variant | area with substrate ENLYAQS | area with substrate ENLYDQS | area with substrate ENLYEQS | area with substrate ENLYGQS | area with substrate ENLYHQS | area with substrate ENLYIQS | area with substrate ENLYKQS | area with substrate ENLYMQS | area with substrate ENLYNQS | area with substrate ENLYPQS | area with substrate ENLYQQS | area with substrate ENLYRQS | area with substrate ENLYSQS | area with substrate ENLYVQS | area with substrate ENLYWQS | area with substrate ENLYYQS | area with substrate ENLYCQS | area with substrate ENLYLQS | area with substrate ENLYTQS
F140C | 0.0686 | 0.0554 | 0.0473 | 0.0518 | 0.0644 | 0.0713 | 0.0675 | 0.0655 | 0.0628 | 0.0529 | 0.0534 | 0.0815 | 0.0607 | 0.0697 | 0.0693 | 0.0857 |  |  | 
F140K | 0.0972 | 0.0596 | 0.0697 |  | 0.0644 | 0.0583 | 0.0542 | 0.0515 | 0.0528 |  | 0.0595 | 0.0931 |  |  | 0.051 |  | 0.0445 | 0.0536 | 0.0706
W141M | 0.0614 | 0.0531 | 0.0591 |  | 0.0544 | 0.0748 | 0.0626 | 0.0569 | 0.0695 | 0.0612 | 0.0528 | 0.0528 | 0.0575 | 0.133 |  |  | 0.0542 |  | 
K142E | 0.0685 | 0.0619 | 0.0679 | 0.0613 | 0.0609 | 0.0849 | 0.0718 |  | 0.0644 | 0.0671 | 0.0632 | 0.0581 | 0.0666 |  | 0.0583 |  |  |  | 
K142T | 0.0595 | 0.0642 | 0.0644 | 0.0729 | 0.0644 | 0.0956 | 0.0527 | 0.0894 | 0.0665 | 0.0715 |  | 0.064 | 0.0591 | 0.0818 | 0.0712 |  |  |  | 0.0776
H143P | 0.061 | 0.0669 | 0.048 | 0.0451 | 0.0502 |  | 0.0588 | 0.0448 | 0.0673 | 0.0498 |  | 0.0611 | 0.0481 | 0.0588 | 0.0561 | 0.0661 | 0.0468 |  | 0.0605
H143R | 0.0651 |  | 0.0588 | 0.0592 | 0.051 | 0.0578 | 0.0911 |  | 0.0593 | 0.0539 |  | 0.0682 | 0.0531 |  | 0.061 | 0.0491 | 0.0605 | 0.0778 | 
I145D | 0.0556 |  | 0.066 | 0.0535 | 0.0567 |  | 0.0377 | 0.0384 | 0.0535 |  |  | 0.0451 | 0.0595 | 0.0559 | 0.0562 | 0.0685 |  | 0.0571 | 0.0606
I145F | 0.119 |  |  | 0.0558 |  |  |  | 0.0715 | 0.0877 | 0.0863 |  |  |  | 0.0543 |  |  |  |  | 
T147N | 0.0712 | 0.0572 | 0.0725 | 0.0596 | 0.059 | 0.0571 | 0.0573 | 0.0591 | 0.042 | 0.0657 | 0.0639 | 0.0543 |  | 0.0531 | 0.0601 | 0.0658 |  |  | 
K148G | 0.0762 |  | 0.0673 | 0.0543 | 0.0555 | 0.118 | 0.0419 | 0.0672 | 0.0579 | 0.064 | 0.0725 | 0.0662 | 0.0714 | 0.0764 | 0.0633 | 0.0371 |  | 0.0846 | 0.0594
G150R | 0.0579 | 0.0576 | 0.0601 | 0.047 | 0.0576 | 0.0652 | 0.0593 | 0.0587 | 0.0566 | 0.0508 | 0.0943 |  | 0.0705 | 0.0597 | 0.0584 | 0.0616 | 0.0679 | 0.0536 | 0.047
P155A | 0.0788 | 0.0593 | 0.0472 | 0.0948 | 0.0654 | 0.121 | 0.0518 | 0.0792 | 0.0664 |  | 0.0846 |  | 0.0896 | 0.114 | 0.0816 | 0.0596 |  |  | 0.0826
P155S | 0.0482 |  | 0.0577 | 0.045 | 0.0551 | 0.0647 | 0.0586 | 0.0557 | 0.0605 | 0.0466 | 0.0604 | 0.0535 |  | 0.0578 |  | 0.0055 |  | 0.0605 | 0.0685
L156W | 0.0537 | 0.0591 | 0.0639 | 0.0593 | 0.0648 | 0.0607 | 0.0483 | 0.0615 | 0.0642 | 0.0702 | 0.0548 | 0.0656 | 0.0609 | 0.0586 | 0.0576 | 0.0499 |  | 0.0654 | 0.0593
D161F | 0.0537 | 0.0564 | 0.0585 | 0.0523 | 0.0613 | 0.0766 | 0.0388 | 0.0516 | 0.0531 | 0.0514 |  | 0.0451 |  | 0.0713 | 0.0566 | 0.0445 |  | 0.055 | 
D161K | 0.0656 | 0.0582 | 0.0543 | 0.0643 | 0.0621 |  | 0.0566 | 0.0507 | 0.047 | 0.049 | 0.0442 |  |  | 0.0745 |  | 0.0528 | 0.0586 |  | 0.0462
F163R | 0.0486 |  | 0.0711 | 0.0621 | 0.0692 |  | 0.0549 | 0.0945 | 0.0809 | 0.0728 | 0.0761 | 0.0586 | 0.0734 | 0.122 | 0.113 |  |  | 0.0842 | 
F163V | 0.0689 |  |  | 0.0696 | 0.0763 |  | 0.0708 |  | 0.0565 | 0.107 | 0.0648 | 0.0545 |  | 0.103 | 0.093 |  |  |  | 0.0945
I164C | 0.0775 | 0.0559 | 0.0633 | 0.0564 | 0.0698 | 0.109 | 0.0424 | 0.0791 | 0.0652 | 0.0732 | 0.0545 | 0.0591 | 0.0744 | 0.111 | 0.0409 | 0.061 |  | 0.0731 | 0.076
G166R | 0.0528 | 0.0478 | 0.0468 | 0.0435 | 0.0491 | 0.0476 | 0.039 | 0.0521 | 0.0534 | 0.049 | 0.0568 | 0.0524 | 0.0475 | 0.058 |  |  |  |  | 0.0452
G166V | 0.0412 | 0.0626 | 0.0459 | 0.0406 | 0.0467 |  | 0.0458 | 0.0522 | 0.0504 |  |  | 0.0611 | 0.051 | 0.042 | 0.036 |  | 0.0556 | 0.0376 | 0.058
I167T | 0.071 | 0.0553 | 0.0653 |  | 0.0636 | 0.0745 | 0.067 | 0.0562 | 0.0565 |  |  |  | 0.0536 |  | 0.0635 |  |  |  | 0.0681
I167W | 0.058 | 0.063 | 0.0563 | 0.0576 |  | 0.0425 |  |  | 0.056 | 0.0565 | 0.0554 | 0.0629 |  | 0.0792 |  | 0.0413 |  | 0.0705 | 
H168W | 0.0612 | 0.0607 | 0.0603 | 0.0604 | 0.064 | 0.0754 | 0.0625 | 0.0576 | 0.0647 | 0.0605 | 0.0604 | 0.0802 | 0.0673 |  | 0.061 |  |  | 0.0782 | 0.058
